The supplement of paper PMC3334620
Over roughly 33,000 sequences, “E-score (-0.5 to 0.5)” has its median near -0.016; the highest 2% begin near 0.32. This is one part of the list.

Target: T1, Stp1 (UniProt B3LFK1)
T1 sequence: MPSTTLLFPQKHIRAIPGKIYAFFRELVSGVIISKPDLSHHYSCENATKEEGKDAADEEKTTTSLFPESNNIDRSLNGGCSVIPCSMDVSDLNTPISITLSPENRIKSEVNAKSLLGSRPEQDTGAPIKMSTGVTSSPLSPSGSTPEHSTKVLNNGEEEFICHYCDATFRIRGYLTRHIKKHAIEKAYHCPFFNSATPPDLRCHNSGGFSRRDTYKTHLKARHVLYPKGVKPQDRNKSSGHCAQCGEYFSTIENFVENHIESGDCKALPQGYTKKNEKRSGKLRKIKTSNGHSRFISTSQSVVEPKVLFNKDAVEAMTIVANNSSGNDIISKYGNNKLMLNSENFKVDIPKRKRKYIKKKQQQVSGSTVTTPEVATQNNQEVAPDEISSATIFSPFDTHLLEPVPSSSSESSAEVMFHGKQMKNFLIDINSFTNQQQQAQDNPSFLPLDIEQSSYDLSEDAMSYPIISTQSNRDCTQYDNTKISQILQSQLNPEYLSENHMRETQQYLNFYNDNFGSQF
Test: PBM E-score (8-mer binding enrichment) (E-score (-0.5 to 0.5)); higher = stronger / more preferred TF binding; most listed sequences are background and not binding sites
Conditions: protein concentration: 200 nM; construct: GST-full length
Experimental: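 Universal 'all 10-mer' protein binding microarrays (Agilent AMADID 015681) probed with GST-tagged S. cerevisiae TFs (full-length or DBD) made by in vitro transcription/translation (PURExpress), about 100-200 nM. Bound TF was detected with fluorescent anti-GST. Each ungapped 8-mer (which stands for itself and its reverse complement) is scored by the PBM enrichment score (E-score), a modified Wilcoxon-Mann-Whitney statistic from -0.5 to +0.5, computed with the Universal PBM Analysis Suite. Scale: above 0.35 generally sequence-specific binding.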

Sequence | PBM E-score
TACCTCCA | -0.168
AGTGCTAA | -0.148
ACACTACC | -0.183
GTCAGCCA | -0.182
AGTCATAT | -0.0128
ACCGATCG | -0.0193
AAGCTTAG | 0.0859
CGACAGGA | 0.0372
ATTTGGAG | -0.0679
ACCCTATC | -0.117
TCTGAGCA | -0.124
GAGACGTA | -0.074
CGTACTCC | -0.0311
CCTATTTC | 0.0538
ACATTAAA | 0.0894
CCTGTATA | 0.0272
ACAGCGAG | -0.135
CCACGTGA | 0.107
TGATTTAA | 0.221
GCAATTGC | 0.262
AAAGTCTC | -0.173
AACCTTAA | 0.0831
GGGTGCTA | -0.113
GGGGCTAA | -0.174
ACCGAAAA | 0.15

Sequence | PBM E-score
ATATAGGC | 0.0688
CAACAAGC | 0.0461
GCAGCACC | -0.237
ACACTAAA | 0.156
AGCGCGTC | -0.0749
ACTTCCTA | -0.21
CGTTAGAA | 0.0696
AGAGACAC | -0.183
ACGTAAAT | 0.0468
AGAAAACT | 0.086
GCGAACCC | 0.0483
ACGGACCC | -0.112
AATGTCGT | -0.0428
CGAACGTA | -0.0114
GGCCGCAA | 0.131
CCATGTCC | -0.134
CTGGGTCC | -0.323
CGGTGCTA | -0.0881
CATCTAAC | 0.0715
CAAACGCA | -0.0885
CATTGGAG | -0.074
AGCCCGGA | -0.298
CATATTGA | -0.0282
CTCTGTCC | -0.193
CATCACGA | 0.0263

Sequence | PBM E-score
ATACATTC | -0.181
CTAGGCAA | -0.0541
ACAAGAGA | -0.0297
GACTTGCC | -0.103
AATGACAG | -0.0923
AATGACTC | -0.225
CAGTGGGC | 0.00978
CAATGGCC | -0.167
CCCCTGCA | -0.289
GACATCAC | 0.0238
GTAACTAA | 0.0925
CGGGTGCA | -0.0822
GTCGTGGA | -0.0594
AATTCCTC | -0.167
CCTATATC | 0.03
ACATGAGT | -0.141
GATTTTAC | -0.0481
ACTTGAGC | -0.222
ATATAGTA | 0.134
GCCGCGAA | 0.159
CTAATAGA | 0.142
GGAACGAC | -0.196
GACGAAGC | 0.00857
CGTCCGAC | -0.146
CATCCCCC | -0.273

Sequence | PBM E-score
AGAGGTAC | -0.122
TCTGCGCA | 0.0892
CTCATAAG | 0.0274
ACCAGGAG | -0.0553
ACAAGACC | -0.193
AAGTAGAA | 0.0178
CTCGAAGC | -0.053
CGAAATAG | 0.0687
GACATAGC | 0.0411
AAGCGCGA | -0.0441
GAGCGATC | -0.191
TCGGCAAA | 0.0291
ATCGCACG | 0.0568
GATCTTGC | 0.102
CGACCAGA | -0.0314
ATCAGTTG | 0.00725
CTTCCATC | 0.0176
CAGTACTA | -0.141
CCGTGTAC | 0.287
ATAACCCC | -0.223
AATAGACT | -0.149
ACTCTCCC | -0.159
ATCGGGGC | -0.219
ACCAAGGA | 0.046
GGCGAAGA | 0.0587

Sequence | PBM E-score
TAATTATA | 0.254
CTGAATAA | 0.138
AGACGGGG | -0.154
CATTATGA | 0.0784
CACTAGTG | 0.056
CCCAAAAC | 0.00365
AGCCCCTC | -0.203
GTCGTTAA | -0.0161
CACGGTAG | -0.0367
ACCACTTG | -0.105
CAAGGATA | 0.0131
CGCACTAC | -0.0159
CCAGCTTC | -0.115
CCCCTACG | -0.221
AGCACATC | -0.123
AGATTCGG | 0.0539
CGGGGGAG | -0.332
TGCACTAA | 0.109
ATCGCTTA | -0.214
GACGGATA | 0.0788
AGTGGATA | -0.0358
TCCGATAA | -0.173
ACTATTGA | 0.157
GAGTATGA | -0.0107
AATAATCC | -0.0326

Sequence | PBM E-score
ACCCGCCC | -0.0208
AACTCTGG | -0.0499
GTACCTAA | -0.0311
CGTAGCTA | -0.0994
AACCCTGC | -0.232
ATGTGTCA | 0.0685
CACATATG | 0.0756
ACAATCCT | 0.00881
CTGGCTAC | -0.0658
CGGGCTGC | -0.0505
GATTTATA | 0.165
AGTTTCCA | 0.0131
ATTGCTGG | -0.0603
TATCCACA | 0.0396
CTATGGAC | 0.0331
ACGTCTTG | -0.00832
CCCCACAG | -0.211
GATCTACC | -0.204
ACGTCGTG | -0.00714
GTAGGCAA | 0.086
AGAGGCTA | -0.136
AACATACA | 0.0939
CGGCTTAA | 0.318
ACCGTGCG | 0.371
GTTCCTCA | -0.0243

Sequence | PBM E-score
AGCAATAG | 0.0149
CAGTCATG | -0.178
CAATACTA | 0.0551
CATTCTAC | 0.177
CTTAGAAG | -0.0262
AACGACTT | -0.155
GACTCCTA | -0.211
AGCGTATG | -0.069
AGCATCGC | -0.17
AAACGTTG | -0.17
CCCGGGTA | -0.253
ATAAGTCG | -0.108
AACCCTCC | -0.264
AGTGGCAA | 0.162
GCCCAAAA | 0.0343
ATTTTTTG | 0.146
CTAAAGGA | 0.0863
GGGTAGGA | -0.205
CCGAACGG | 0.334
CTCCACAA | -0.0566
GCGGATAC | 0.124
ATGGCGGA | -0.208
